Variants at the floor of the assay are shown more often than the library holds them.
B1: TPR 5TU (parent)
chain: GGAUCUUCUCGAUCUAACAAAAAAGACAAAUCUGCCACAAAGCUUGAGAGCAUCUUCGGAUGCAGAGGCGGCAGCCUUCGGUGGCGCGAUAGCGCCAACGUUCUCAACUAUGACACGCAAAACGCGUGCUCCGUUGAAUGGAGUUUAUCAUG

Variants of: B1
Assay: polymerase ribozyme fitness, log enrichment relative to wild type (log ratio); higher = more active; in vitro selection for triplet polymerase activity
How it was run: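 Mutant libraries of both subunits of a heterodimeric triplet polymerase ribozyme were PCR-built, transcribed, and selected once in triplicate, with frozen incubation at −7 °C and capture of gel-excised extended constructs on streptavidin beads before RT-PCR. Illumina sequencing of input and output libraries was filtered to genotypes with ≥10 input reads and ≥1 read per output. Fitness is the logarithm of genotype enrichment over wild-type enrichment, using inverse-variance-weighted replicate averages. The logarithm is base 2.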

GGAUCUUCUCGAUCUAACAAAAAAGACAAAUCUGCCGCAAAGCUUGAGAGCAUAUUCGGAUGCAGAGGCGGCAGCCUUCGGUGGCGCGAUAGGGCCAACGUUCUCAACUAUGACACGCAAAACGCGUGCUCCGUUGAAUGGCGUUUUUCAUG [A37G C54A C93G A142C A147U] and GGAUCUUCUCGAUCUAACAAAAAAGACAAAUCUGCCGCAAAGCUUGAGAGCAUGUUCGGAUGCAGAGGCGGCAGCCUUCGGUGGCGCGUUAGCGCCGACGUUCUCAACUAUGGCACGCAAAACGCGUGCACCGUUGAAUGGAGUUUAUCAUG [A37G C54G A89U A97G A113G U130A] cannot be ordered by “polymerase ribozyme fitness (log ratio)” value: no more than -4.2 for the first, no more than -4.2 for the second.

Going from GGAUCUUCUCGAUCUAACAAAAAAGACAAAUCUGCCGCAAAGCUUGAGAGCAUUUUCGCAUGCAGAGGUGGCAGCCUUCGGUGGCGCGAUAGCGCCAACGUUCUCAACUAUGACACGCAAAACGCGUGCUCCGUUGAAUGGAGUUUAUCAUG [A37G C54U G59C C69U] to GGAUCUUCUCGAUCUAACAAAAAAGACAAAUCUGCCGCAAAGCUUGAGAGCAUCUUGGGAUGCAGAGGCGGCAGCCUUCGGUGGCGCGAUAGCGCCGACGUUCUCAACUAUGACACGCAAAACGCGUGCUCCGUUGAAUGGAGUUUAUCAUG [A37G C57G A97G], the “polymerase ribozyme fitness (log ratio)” value falls from -1.86 to -2.57.

GGAUCUUCUCGAUCUAACAAAAAAGACAAAUCUGCCGCAAAGCUUGAGAGCAUCUUGGGAUGCAGAGGCGGCAGUCUACGGUAGCGCGAUAGCGCCAACGUUGUCAACUAUGACACGCAAAACGCGUGCUCCGUUGAAUGGAGUUGAUCAUG [A37G C57G C75U U78A G83A C103G U146G] and GGAUCUUCUCGAUCUAACAAAAAAGACAAAUCUGCCGCAAAGCUUGAGAGCAUCUUCGGAUGCAGAGGCGGUAGCCUUCGGUGGCGCGAUAGCGCCGACGUGCUCAACUAUGACACGUAAAACGCGUGCUCCGUUGAAUGGAGUUUAUCAUG [A37G C72U A97G U102G C118U] cannot be ordered by “polymerase ribozyme fitness (log ratio)” value: no more than -4.2 for the first, no more than -4.2 for the second.

GGAUCUUCUCGAUCUAACAAAAAAGACAAAUCUGCCGCAAAGCUUGAGAGCAUCUUCGGAUGCAGAGGCGGCAGCCUUGGGUGGCGCGAUAGCGCCAACGUUCUCACCUAUGACACGCAAAACGAGUGAUCCGUUGAAUGGAGUUUAUCAUG [A37G C79G A107C C125A C129A] and GGAUCUUCUCGAUCUAACAAAAAAGACAAAUCUGCCGCAAAGCUUGAGAGCAUCUUCGGAUGCAGAGGCGGCAGCCUUCGGUGGCGAGAUAGCGCCAACGUUCUCAACUAUGACACGCAAAACGCGUGCUCCGUUGAAUGGAGUUUAUCAUG [A37G C87A] cannot be ordered by “polymerase ribozyme fitness (log ratio)” value: no more than -4.2 for the first, no more than -4.2 for the second.

GGAUCUUCUCGAUCUAACAAAAAAGACAAAUCUGCCGCAAAGCUUGAGAGCAUCUUCGGAUGCAGAGGCGGCAGCCUUCGGUGGCGAGAUAGCGCCAACGUUCUCAACUAUGCCACGCAAAACGCGUGCUCCGUUGAAUGGAGUUUAUCAUG [A37G C87A A113C] and GGAUCUUCUCGAUCUAACAAAAAAGACAAAUCUGCCGCAAAGCUUGAGAGCAUCUUCGGAUGCAGAGGCGGCAGCCUUCGGUGGCGCGAUAGGGCCCACGUUCUCAACUAUGACAAGCAAAACGCGUGCUCCGUUGAAUGGAGUUUAUCAUG [A37G C93G A97C C116A] cannot be ordered by “polymerase ribozyme fitness (log ratio)” value: no more than -4.2 for the first, no more than -4.2 for the second.

GGAUCUUCUCGAUCUAACAAAAAAGACAAAUCUGCCGCAAAGCUUGAGAGCAUCUUCGGAUGCAGAGGCGGCAGCCUUCGGUGGCGCGAUAGCGUCAACGUUCUCAACUAUGACACGCAAAACGCGUGCGCCGUUGAAUGGAGCUUAUCAUG [A37G C95U U130G U144C] and GGAUCUUCUCGAUCUAACAAAAAAGACAAAUCUGCCGCAAAGCUUGAGAGCAUCUUCGGAUGCAGAGGCGGCAGCCUUCGGUGGCGCGAUAGCGCCAACGUUCUUAUCUAUGACACGCAAAACGCGUGCGCCGUUGAAUGGAGUUUAUCAUG [A37G C105U A107U U130G] cannot be ordered by “polymerase ribozyme fitness (log ratio)” value: no more than -4.2 for the first, no more than -4.2 for the second.

Going from GGAUCUUCUCGAUCUAACAAAAAAGACAAAUCUGCCGCAAAGCUUGAGAGCAUCUUCGGAUGCAGAGGCGGCAGCCUUCGGUGGCGCGAUAGCGCCAACGUUCUCAACUAUGACACGCAAAAUGCGUGCUCCGUUGAAUGGAGUUUAUCAUG [A37G C123U] to GGAUCUUCUCGAUCUAACAAAAAAGACAAAUCUGCCGCAAAGCUUGAGAGCAUCUUCGGAUGCAGAGGCGGCAGCCUUCGGUGGCGCGAUAGCGCCAACGUUCUCAACUAUGACACGCAAAACGCGUGCUUCGCUGAAUGGAGUUUAUCAUG [A37G C131U U134C], the “polymerase ribozyme fitness (log ratio)” value rises from -1.8 to -1.56.

GGAUCUUCUCGAUCUAACAAAAAAGACAAAUCUGCCGCAAACCUUGUGAGCAUCGUCGGAUGCAGAGUCGGCAGCCUUCGGUGGCGGGAUAGCGCCAACGUUCUCAACUAUGACACGCAAAACGCGUGCUCCGUUGAAUGGAGUUUAUCAUU [A37G G42C A47U U55G G68U C87G G152U] and GGAUCUUCUCGAUCUAACAAAAAAGACAAAUCUGCCGCAAACCUUGAGAGCAUCUUCGGAUGCAGAGGUGGCAGCCUUCGGUGGCGCGAUAGCGCUAACGUUCUCAACUAUGACACGCAAAACACGUGCUCCAUUGAAUGGAGUUUAUCAUG [A37G G42C C69U C96U G124A G133A] cannot be ordered by “polymerase ribozyme fitness (log ratio)” value: no more than -4.2 for the first, no more than -4.2 for the second.

GGAUCUUCUCGAUCUAACAAAAAAGACAAAUCUGCCGCAAAGCUUAAGAGCAUCUUCGGAUGCAGAGGCGGCAGCCUUCGGUCGCGCGAUAGCGCCAACGUUCUCAACUAUGACACGCAAAACGCGCGCUCCGGUGAAUGGAGUUUAUCAUG [A37G G46A G83C U127C U134G] and GGAUCUUCUCGAUCUAACAAAAAAGACAAAUCUGCCGCAAAGCUUGACAGCAUCUUCGGAUGCAGAGGCGGCAGCCUUCGGUGGCGCGAUAGAGCCAACGUUCUCAACUAUGACACGCAAAACGCGUGCUCCGUUGAAUGGAGUUUAUCAUG [A37G G48C C93A] cannot be ordered by “polymerase ribozyme fitness (log ratio)” value: no more than -4.2 for the first, no more than -4.2 for the second.

For GGAUCUUCUCGAUCUAACAAAAAAGACAAAUCUGCCGCAAAGCUUGAGAGCAUCUUCAGAUGCGGAGGCGGCAGCCUUCAGUGGCGCGAUAGCGCCAACGUUCUCAACUAUGACACGCAAAACGCGUGCUCCGGUGAAUGGAGUUUAUCAUG [A37G G58A A64G G80A U134G], the “polymerase ribozyme fitness (log ratio)” value was no more than -4.2.

From the RNAGym collection of RNA variant scans (doi:10.1073/pnas.2313332121)
